According to PubChem BioAssay (NCATS):
Inconclusive results, whose numbers are uncertain, are shown with a selection of clear calls. Potencies beside an inconclusive call are fits to weak or partial responses and may not hold up. Active and inactive are the calls of the source. The call rests on the fitted dose curve; in most records, active means well fitted inhibition curve with a large enough effect; inconclusive means small, poorly fitted or top-dose-only effect; inactive means no such curve, though single readings can be large or run the other way.

Biological target: Retinaldehyde dehydrogenase 3 (Homo sapiens) (UniProt P47895)
Test: qHTS for Inhibitors of the Aldehyde Dehydrogenase Family (ALDH1A3) Primary screen (AID 2061315)
Conditions: ALDH inhibition qHTS; series mostly up to 56 µM
Potency means the concentration at half of the fitted maximal effect; tags describe the fitted curve by direction and shape.

Row | SMILES | Potency
1 | COc1cccc(N2C(=O)c3ccccc3C2=O)c1 | inactive
2 | Cc1ccc(-c2cc(C(=O)NCc3ccc(S(C)(=O)=O)cc3)c3ccccc3n2)cc1C | inactive
3 | CCCCN(C)C(=O)Cn1nc(-c2ccc(C(C)=O)cc2)ccc1=O | inconclusive: 1.12 µM [inhibitor, full curve, poor fit]
4 | NC(=O)c1ccc(OCC2NC(=O)C3CCCN3C2=O)cc1 (stereo not drawn) | inconclusive: 39.8 µM [inhibitor, partial curve, poor fit]
5 | COc1c2c(cc3c1-c1c(cc4c(c1OC)OCO4)CC(C)C(C)C3)OCO2 (stereo not drawn) | inactive
6 | Cc1ccnc(NC(=S)N2CCN(c3cccc(C(F)(F)F)n3)CC2)c1 | inconclusive: 7.08 µM [inhibitor, single point]
7 | CCOC(=O)c1c(-c2ccc(OC)cc2)csc1NC(=O)C1CCCO1 (stereo not drawn) | inactive
8 | C=C1CCC2(C(=O)OC3OC(CO)C(O)C(O)C3O)CCC3(C)C(=CCC4C5(C)CCC(OC6OC(CO)C(OC7OC(C)C(O)C(O)C7O)C(OC7OCC(O)C(O)C7O)C6O)C(C)(C)C5CCC43C)C2C1 (stereo not drawn) | inconclusive: 4.47 µM [inhibitor, single point]
9 | CC1(O)CCC2C(C(=O)O)=COC(OC3OC(CO)C(O)C(O)C3OC(=O)/C=C/c3ccc(O)cc3)C21 (stereo not drawn) | inconclusive: 14.1 µM [inhibitor, partial curve]
10 | CN(Cc1ccco1)c1ncnc2ccc(-c3cccc(Cl)c3)cc12 | inactive
11 | COc1cccc(CNc2ccc(S(=O)(=O)Nc3ccccn3)cc2)c1O | inconclusive: 22.4 µM [inhibitor, partial curve, poor fit]
12 | COc1ccc(C2Nc3cccc4cccc(c34)N2)cc1 | inconclusive: 5.01 µM [inhibitor, full curve, poor fit]
13 | COc1cc(C2Oc3c(OC)cc(CCCO)cc3C2CO)ccc1O (stereo not drawn) | inconclusive: 31.6 µM [inhibitor, partial curve, poor fit]
14 | Cc1ccc(NS(=O)(=O)c2cc3c(cc2N2CCCCC2)NC(=O)CC3)cc1C | inactive
15 | C=C1CC[C@H]2[C@@](C)(CCC(O)[C@@]2(C)CO)[C@@H]1C/C=C(/C(=O)O)C(O)CO (stereo partly drawn) | inconclusive: 3.16 µM [inhibitor, full curve, poor fit]
16 | O=C(OC[C@@]1(O)CO[C@@H](O[C@H]2[C@H](Oc3ccc(O)cc3)O[C@H](CO)[C@@H](O)[C@@H]2O)[C@@H]1O)c1ccc(O)cc1 | inconclusive: 10 µM [inhibitor, partial curve, poor fit]
17 | CC(/C=C/C1(O)C2(C)COC1(C)CC(=O)C2)O[C@@H]1O[C@H](CO)[C@@H](O)[C@H](O)[C@H]1O (stereo partly drawn) | inconclusive: 20 µM [inhibitor, partial curve, poor fit]

Row | SMILES | Potency
18 | COc1cc(C2Oc3c(OC)cc(/C=C/C(=O)OC4CC(O)(C(=O)O)CC(O)C4O)cc3C2CO)ccc1O (stereo not drawn) | inconclusive: 7.94 µM [inhibitor, partial curve]
19 | C=CC1C(OC2OC(CO)C(O)C(O)C2O)OC=C(C(=O)OC)C1CC1CC(=O)CC(CCc2ccc(O)cc2)O1 (stereo not drawn) | inconclusive: 7.94 µM [inhibitor, single point]
20 | COc1ccc(/C=C/C(=O)O[C@@H]2[C@@H](O)[C@@H](O)[C@H](O[C@@H]3C=C(CO)[C@H]4[C@H](O[C@@H]5O[C@H](CO)[C@@H](O)[C@H](O)[C@H]5O)OC=C[C@H]43)O[C@H]2C)cc1O | inconclusive: 7.08 µM [inhibitor, partial curve, poor fit]
21 | C[C@]1(C2CCCC2)Cc2cc(OCC(=O)O)c(Cl)c(Cl)c2C1=O | inconclusive: 17.8 µM [inhibitor, partial curve]
22 | CC1CC2OCC3(O)CCC(O)C(C14CC(c1ccoc1)OC4=O)C23CO (stereo not drawn) | inconclusive: 10 µM [inhibitor, partial curve, poor fit]
23 | CCC(=O)NC(c1cc(Cl)c2ccccc2c1O)C1CC1 (stereo not drawn) | inconclusive: 17.8 µM [inhibitor, partial curve, poor fit]
24 | CC1=CC(=O)CC(C)(C)C1(O)CCC(C)O (stereo not drawn) | inconclusive: 14.1 µM [inhibitor, partial curve]
25 | C[C@@H]1O[C@@H](O[C@H]2[C@H](OC(=O)C34CCC(C)(C)CC3C3=CCC5C6(C)CC(O)C(O[C@@H]7O[C@H](CO)[C@@H](O)[C@H](O)[C@H]7O)C(C)(C(=O)O)C6CCC5(C)C3(CO)CC4)O[C@H](C)[C@H](O)[C@@H]2O)[C@H](O)[C@H](O)[C@H]1O[C@@H]1OC[C@@H](O)[C@H](O)[C@H]1O (stereo partly drawn) | inconclusive: 10 µM [inhibitor, single point]
26 | CC1=C(CCC(C)O[C@@H]2O[C@H](CO)[C@@H](O)[C@H](O)[C@H]2O)C(C)(C)CCC1=O (stereo partly drawn) | inconclusive: 17.8 µM [inhibitor, partial curve, poor fit]
27 | C[C@H]1CC[C@H]2[C@@H](C=C[C@@](C)(O)[C@]2(C)C(=O)CCO)C1 | inactive
28 | C=C1CC[C@@H]2[C@](C)(CO)[C@H](O)CC[C@@]2(C)[C@@H]1CC(O)C1=CCOC1=O (stereo partly drawn) | inconclusive: 12.6 µM [inhibitor, single point]
29 | COc1ccc(-c2nc(-c3cccc(C(=O)O)c3)no2)cc1 | inconclusive: 0.1 µM [inhibitor, full curve, poor fit]
30 | O=C(NCc1ccc(F)cc1)n1c(-c2ccccc2)c(P(=S)(c2ccccc2)c2ccccc2)c2ccccc21 | inactive
31 | COc1cccc(Cn2ncc3c4sc(S(C)=O)cc4n(C)c3c2=O)c1 (stereo not drawn) | inconclusive: 14.1 µM [inhibitor, single point]
32 | CC(C)n1nc(C#Cc2ccccc2)c2c(N)ncnc21 | inconclusive: 7.08 µM [inhibitor, partial curve]
33 | CC1CC2OC3(OC2C(C)(C)O)C1C1(C)CCC24CC25CCC(O[C@@H]2OC[C@@H](O)[C@H](O)[C@H]2O)C(C)(C)C5CC=C4C1(C)C3O (stereo partly drawn) | inactive
